Screen size: about 410,000 compounds; about 530 (0.13%) were called active. Inconclusive means that the source gave no clear call. Such entries were picked first, then a sample of the others. Calls follow the shape of the dose curve; as a rule, active = well fitted inhibition curve with a large enough effect; inconclusive = small, poorly fitted or top-dose-only effect, or another doubt; inactive = no such curve, though single readings can be large or run the other way. Where the call is inconclusive, the potency comes from a doubtful curve fit.
assay: qHTS of GLP-1 Receptor Inverse Agonists: Cytotox Screen; details: HEK293 cAMP-luciferase reporter cells, luminescence, 24 h; activity change, negative = inhibition: at 38.3 µM (top of the series) unless noted
In short: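 1536-well qHTS counterscreen of the MLSMR; 200 cells/uL, 12 h pre-incubation, 23 nL cpd, 24 h at 37 deg C 5% CO2, luciferase detection reagent, 12 min RT, luminescence. Inhibition = undesired.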
% is scaled to controls: 0 for no effect and ±100 for the full control effect; potency is read from the fitted curve at half-maximal effect.

SMILES | Potency | activity change, negative = inhibition
C=C(C)CNC(=S)NN=C1c2ccccc2-c2ccccc21 | inconclusive: 2.51 µM [inhibitor, partial curve, poor fit] | 
Clc1ccccc1/C=N/N1CCN(Cc2ccccc2)CC1 | inactive | 
O=S(=O)(c1ccccc1)N1CCNc2ccccc21 | inactive | 
CCCCC(=O)NC(c1ccccc1Cl)c1ccc2cccnc2c1O (stereo unspecified) | inconclusive: 1.78 µM [inhibitor, full curve, poor fit] | 
Cc1ccc(-c2cnc(C(O)c3ccc(Cl)cc3C)[nH]2)cc1 (stereo unspecified) | inactive | 
COc1ccc(S(=O)(=O)N2CCCc3ccccc32)cc1OC | inactive | 
COc1ccc(/C=C/C(=O)c2ccc(NS(=O)(=O)c3ccc(C)cc3)cc2)cc1O | inconclusive: 28.2 µM [inhibitor, single point] | 
Cc1cccc(C)c1NC(=O)CSc1nnc(C2CCCCC2)o1 | inconclusive: 2.51 µM [inhibitor, partial curve, poor fit] | 
CN1CCc2c(OCC(=O)N3N=C(c4cccs4)CC3c3ccc(F)cc3)cccc2C1=O (stereo unspecified) | inconclusive: 14.1 µM [inhibitor, single point] | 
CCOC(=O)C1=C(c2ccccc2)N=c2sc(=Cc3cc(OC)c(OC)c(OC)c3)c(=O)n2C1c1cccs1 (stereo unspecified) | inactive | 
Cc1cc(C)cc(N(CC(=O)Nc2ccccc2)C2=NC3CS(=O)(=O)CC3S2)c1 (stereo unspecified) | inconclusive: 28.2 µM [inhibitor, single point] | 
O=C(CCN1CCCC1Cc1ccccc1)c1ccc2c(c1)OCCO2 (stereo unspecified) | inconclusive: 28.2 µM [inhibitor, single point] | 
COc1ccc(NC(=O)c2cc(-c3cc(F)ccc3OC)n[nH]2)cn1 | inactive | 
CN(C)CCCn1c(N)c(C#N)c2nc3ccccc3nc21 | inactive | 
O=S(=O)(c1cccc2cccnc12)N(CCO)CCO | inconclusive: 31.6 µM [inhibitor, single point] | 
COc1ccc(-c2nnc(Nc3nc4c(OC)cccc4s3)o2)cc1 | inconclusive: 28.2 µM [inhibitor, single point] | 
CCOC(=O)C1=C(C)NC2=C(C(=O)CC(c3cccs3)C2)C1c1cccs1 (stereo unspecified) | inconclusive: 3.98 µM [inhibitor, partial curve] | 
CCCc1nnc(NC(=O)Cc2coc3ccc(C)cc23)s1 | inactive | 
Brc1ccc(CN2CCc3nc(N4CCN(c5ncccn5)CC4)ncc3C2)cc1 | inactive | 
Cc1cccc(NC(=O)CN(C)S(=O)(=O)c2cccc3cccnc23)c1C | inactive | 
Cc1ccc(C(=O)Nc2ccccc2-c2ccccc2)cc1S(=O)(=O)Nc1ccccc1 | inconclusive: 22.4 µM [inhibitor, single point] | 
COc1ccc(NCc2cc3ccc(OC)cc3n(CC(=O)Nc3cccc(OC)c3)c2=O)cc1 | inactive | 
Cc1ccccc1C(=O)N1CCC(C(=O)Nc2ccc(C(C)C)cc2)CC1 | inconclusive: 20 µM [inhibitor, single point] | 
CC(=O)Nc1ccc(CNc2nc(NCCN(C)C)nc3cc(-c4ccccc4)sc23)cc1 | inconclusive: 28.2 µM [inhibitor, single point] | 

SMILES | Potency | activity change, negative = inhibition
CCN1CCN(c2cc(C)c3cc(NC(=S)N4CCN(c5ccc(F)cc5)CC4)ccc3n2)CC1 | inconclusive: 3.16 µM [inhibitor, full curve, poor fit] | 
CC(C)CN=c1cc(-c2ccccc2)oc2ccc(Cl)cc12 | inconclusive: 28.2 µM [inhibitor, single point] | 
COc1ccc(NC(=O)C2Cc3c(-c4ccccc4)ccnc3O2)cc1OC (stereo unspecified) | inconclusive: 31.6 µM [inhibitor, partial curve, poor fit] | 
Cc1ccccc1NC(=O)c1c(NC(=O)C(F)(F)F)sc2c1CCCCC2 | inconclusive: 0.447 µM [inhibitor, full curve, poor fit] | 
CSc1nc(N)nc(SC2C=CCCC2)c1C#N (stereo unspecified) | inconclusive: 2.51 µM [inhibitor, full curve, poor fit] | 
CCn1c2ccccc2c2cc(/C=N/NC(=O)c3ccc(O)cc3)ccc21 | inconclusive: 12.6 µM [inhibitor, single point] | 
COc1ccc(C(=O)NC2CC2)cc1OC1CCN(Cc2ccc(F)cc2Cl)CC1 | inconclusive: 12.6 µM [inhibitor, single point] | 
COC(=O)c1ccc(CSc2nc3c(c(=O)n2-c2ccc(F)cc2)SCC3)o1 | inconclusive: 1.58 µM [inhibitor, full curve, poor fit] | 
Cc1cc(OCCN2CC(C)OC(C)C2)ccc1[N+](=O)[O-] (stereo unspecified) | inactive | 
Cn1/c(=N\NC(=O)C2CCCCC2)sc2ccccc21 | inactive | 
COC(=O)c1ccccc1S(=O)(=O)N1CCC(C(=O)NCCC2=CCCCC2)CC1 | inconclusive: 28.2 µM [inhibitor, single point] | 
COc1cccc(/C=N/N=C(\N)c2nonc2N)c1O | inconclusive: 2.82 µM [inhibitor, full curve, poor fit] | 
CC1=C(C(=O)Nc2cccnc2)C(c2ccc(Cl)cc2)n2nc(SCc3ccccc3)nc2N1 (stereo unspecified) | inactive | 
COc1cccc(N2CCN(C(=O)C3CCCN(c4ncnc5c4nc4n5CCCCC4)C3)CC2)c1 (stereo unspecified) | inconclusive: 12.6 µM [inhibitor, single point] | 
O=c1c2ccccc2cnn1Cc1n[nH]c(=S)n1-c1ccc(F)c(Cl)c1 | inconclusive: 2.82 µM [inhibitor, full curve, poor fit] | 
CC(C)NC(=O)NC(=O)COC(=O)c1c2c(nc3ccccc13)CCC2 | inconclusive: 22.4 µM [inhibitor, single point] | 
C/C(=N\NC(=O)C(N)=O)c1cccc(C(F)(F)F)c1 | inactive | 
CCc1ccc(-c2nnn(CCC#N)n2)cc1 | inactive | 
O=C(Cn1cc(C(F)(F)F)ccc1=O)NCCc1ccc(Cl)cc1Cl | inactive | 
Cc1nccn1CC(O)COc1ccccc1 (stereo unspecified) | inactive | 
C=CCn1c(-c2cccc(OCC)c2)n[nH]c1=S | inconclusive: 28.2 µM [inhibitor, single point] | 
CCn1c(C)c(C)c2cc(C(=O)NCCN3CCOCC3)ccc21 | inactive | 
CCOc1ccc(C(CC(=O)Nc2cc(C)c(Cl)cc2OC)N2Cc3ccccc3C2=O)cc1OC (stereo unspecified) | inactive | 
O=C(NCCCN1CCCC1)c1ccc2c(Cl)c3c(nc2c1)CCCC3 | inconclusive: 28.2 µM [inhibitor, single point] | 

SMILES | Potency | activity change, negative = inhibition
O=C(NCC(=O)N(Cc1cccs1)C(C(=O)NC1CCCCC1)c1ccco1)c1ccco1 (stereo unspecified) | inconclusive: 12.6 µM [inhibitor, single point] | 
CCOC(=O)c1cnc2c(-c3ccc(Cl)cc3)cnn2c1C | inactive | 
CC(C)(CN1CCN(C(c2ccccc2)c2ccccc2)CC1)NS(=O)(=O)c1ccccc1 | inactive | 
Cc1cc(C)n(CC(O)COc2ccccc2C)n1 (stereo unspecified) | inactive | 
COc1ccc(N=Nc2nc(-c3ccccc3)c(-c3ccccc3)[nH]2)cc1 | inconclusive: 28.2 µM [inhibitor, single point] | 
CCOC(=O)c1cc(-c2ccc(F)cc2)n(CCC(=O)NCc2ccccc2OC)c1C | inactive | 
COc1cc(NC(=S)NC(C)(C)C)c(OC)cc1Cl | inconclusive: 28.2 µM [inhibitor, single point] | 
Cc1ccc(OCc2n[nH]c(=S)n2-c2ccccc2)cc1C | inconclusive: 8.91 µM [inhibitor, partial curve] | 
CCOC(=O)/C(=C\C=C\N1CCOCC1)C(C)=O | inconclusive: 12.6 µM [inhibitor, single point] | 
COC(=O)/C(=C\c1ccc([N+](=O)[O-])o1)NC(=O)c1ccccc1 | inconclusive: 11.2 µM [inhibitor, partial curve, poor fit] | 
CCOC(=O)c1c(CC(C)C)csc1/N=C/C1C(=O)CCCC1=O | inconclusive: 28.2 µM [inhibitor, single point] | 
Cc1cc(N2CCN(C)CC2)ccc1NC(=O)c1c2c(nc3ccccc13)CCN(Cc1ccccc1)C2 | inconclusive: 5.01 µM [inhibitor, full curve, poor fit] | 
C/C=C/C(=O)N1CC2(CC(c3cccc(NC(=O)CC(c4ccccc4)c4ccccc4)c3)=NO2)C[C@H]1C(N)=O (stereo partly specified) | inconclusive: 0.562 µM [inhibitor, full curve, poor fit] | 
N[C@@H](Cc1ccccc1)c1nnc(SCc2ccccc2Cl)o1 | inconclusive: 7.94 µM [inhibitor, partial curve, poor fit] | 
CCN1CCN(c2cc(C(C)(C)C)nc3c(-c4ccccc4)c(C)nn23)CC1 | inconclusive: 31.6 µM [inhibitor, partial curve, poor fit] | 
O=[N+]([O-])c1ccc2nc(NN=Cc3ccc(O)cc3)sc2c1 | inactive | 
CCOC(=O)c1cnc(-c2ccccc2)nc1N1CCOCC1 | inactive | 
CCCCN(CCCNC(=O)CN1C(=O)COc2ccccc21)c1ccccc1 | inconclusive: 11.2 µM [inhibitor, partial curve, poor fit] | 
CCOCCCNC(=S)N1CCCC(c2nc3ccc(C)cc3[nH]2)C1 (stereo unspecified) | inconclusive: 28.2 µM [inhibitor, single point] | 
Fc1ccc(/C=N/n2c(COc3ccccc3)n[nH]c2=S)cc1 |  | inconclusive: -39.9% [inhibitor]
C=CCn1c(-c2cccn(Cc3cccc(Cl)c3)c2=O)n[nH]c1=S | inactive | 
Cc1cccc(-c2noc(-c3c(C)noc3C)n2)c1 | inconclusive: 28.2 µM [inhibitor, single point] | 
COc1ccc(OC)c(NC(=O)Cn2cnc3c(cnn3-c3ccccc3)c2=O)c1 | inconclusive: 4.47 µM [inhibitor, partial curve, poor fit] | 

Source: PubChem BioAssay AID624418 (National Center for Advancing Translational Sciences (NCATS), 2012)
